For the assay, the system named is 233499-124-R-J3-PDC spheroids with HUVEC/MSC, viability. Briefly: Anticancer human tumor 233499-124-R-J3-PDC patient-derived colon adenocarcinoma cell line growth inhibition [PI3K]. To be noted: for IC50: compound alone; for viability, T/C: stronger effect = lower value. The text has this: Combinatorial screen of targeted agents with the PI3K inhibitors inavolisib, alpelisib, duvelisib, and copanlisib in multi-cell type tumor spheroids
A high-throughput screen of multi-cell type tumor spheroids was designed to identify active combinations of targeted small molecules and PI3K pathway inhibitors. Complex spheroids include a stromal component modeled by human endothelial cells (HUVEC) and fibroblasts modeled by human mesenchymal stem cells (MSCs). The concentration ranges selected for each drug and investigational agent were based upon clinically achievable concentrations if the clinical Cmax of the agent was known.
Compounds. The drugs and investigational agents: inavolisib (NSC800729), alpelisib (NSC765974), duvelisib (NSC772469), copanlisib (NSC816437), ipatasertib (NSC767898), afuresertib (NSC778305), talazoparib (NSC767125), sapanisertib (NSC764658), selumetinib (NSC741078), tovorafenib (DAY101, NSC766906), vemurafenib (NSC761431), ravoxertinib (NSC781343), sotorasib (NSC818433), MRTX1133 (NSC 836407), abemaciclib (NSC 768073), palbociclib (NSC758247), venetoclax (NSC 766270), SY5609 (NSC837396), enzalutamide (NSC755605), and darolutamide (NSC825331), were obtained from the National Cancer Institute (NCI) Developmental Therapeutics Program Chemical Repository. The FDA-approved anticancer drug set is available from the NCI Developmental Therapeutics Program. […] The stock solutions were prepared in dimethyl sulfoxide (DMSO, Sigma-Aldrich, St. Louis, MO, cat. D2650) at 800-fold the tested concentration and stored at -70 degrees C prior to their use. All drugs and investigational agents were tested over a range starting from a high concentration at or near the clinical Cmax and decreasing in half-log increments. If the clinical Cmax for an agent had not been determined, the highest concentration tested was 10 microM.
Cell Culture. All cells were maintained in an incubator at 37 degrees C and 5% CO2 with 95% humidity. The PDC lines were cultured according to standard operating procedures established by the NCI PDMR (https://pdmr.cancer.gov/sops/default.htm). All PDCs were thawed and cultured in Matrigel-coated flasks prepared with a working solution of 1X Ham's F-12 nutrient mix, without supplementation (Invitrogen, Waltham, MA, cat. 11765054), 100 U/mL penicillin-streptomycin (Invitrogen, cat. 15140122), and 2.5% Matrigel (Corning Inc., Corning, NY, cat. 354248) for the first three passages. The 354836-022-R-J1-PDC, 475296-252-R-J1-PDC, and 997726-040-R-J2-PDC lines were cultured in 6A media, which includes advanced DMEM/F-12 (Thermo Fisher Scientific, cat. 12634028), 10 mM HEPES (Thermo Fisher Scientific, cat. 15630080), 1X GlutaMAX supplement (Thermo Fisher Scientific, cat. 35050061), 0.1 mg/mL primocin (InvivoGen, San Diego, CA, cat. ant-pm-2), 10% defined fetal bovine serum, heat inactivated (HyClone Laboratories Inc., Logan, UT, cat. SH30070.03HI), 50% L-WRN conditioned media (ATCC, cat. CRL-3276), 1.25 mM N-Acetyl-L-cysteine (Sigma-Aldrich, cat. A9165), 10 mM nicotinamide (Sigma-Aldrich, cat. N0636), 1X B-27 supplement (Thermo Fisher Scientific, cat. 17504044), 1X N-2 supplement (Thermo Fisher Scientific, cat. 17502048), and 10 microM Y-27632 dihydrochloride (Tocris Bioscience, Bristol, United Kingdom, cat. 1254). The 624824-186-R-J2-PDC line was cultured in 6C/Colon 1B media, which includes all 6A media components plus 50 ng/mL human EGF recombinant protein (Thermo Fisher Scientific, cat. PHG0311). […]

A number of entries come with more than one value. This is not the full list of results. There may be further records. The records of an entry are repeated measurements across runs, samples, wells, individuals or studies. Signs of the kind (2×) stand for listed records that agree.

Usually IC50 stands for the point on the concentration scale where inhibition reaches its midpoint. Usually viability, T/C stands for the result in the treated group divided by that in the control group, in per cent.
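Further: spheroids exposed to agents for seven days before readout.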
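Wherever viability, T/C is given: percent viability relative to DMSO vehicle control taken as 100%.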

For `CC1(C)CCC(CN2CCN(c3ccc(C(=O)NS(=O)(=O)c4ccc(NCC5CCOCC5)c([N+](=O)[O-])c4)c(Oc4cnc5[nH]ccc5c4)c3)CC2)=C(c2ccc(Cl)cc2)C1`, the IC50 is 6.16 µM, 5.06 µM, 5.78 µM, > 10 µM. Besides, the viability, T/C (compound alone 0.316 µM) is on record as 85.3, 69.1, 98.3, 103%. Also, where the note is “compound alone 1 µM”, the viability, T/C is recorded as 114, 75.1, 112, 100%. The viability, T/C (compound alone 10 µM) is listed as 13.6, 3.12, 2.79, 117%.

As for `Cc1nc(NC(=O)N2CCCC2C(N)=O)sc1-c1ccnc(C(C)(C)C(F)(F)F)c1` (stereo not drawn), the viability, T/C is recorded as 70, 99.2, 85.1, 85.8, 81.4, 78.7, 91.8, 105% (compound alone 0.316 µM); 87.3, 66.9, 77.3, 70.8, 81.6, 73.2, 49.8, 62.1% (compound alone 1 µM); 85.8, 71.1, 62.5, 65.2, 58.7, 76.1, 61.2, 77.5% (compound alone 3.16 µM); 51.3, 30.7, 42.2, 25.3, 38.7, 32.2, 30.4, 48.5% (compound alone 10 µM). The IC50 (run of 05/08/2023) is > 10 µM, 5.37 µM, 6.4 µM, 4.85 µM, 5.25 µM, 6.25 µM, 3.74 µM, 9.62 µM.

Regarding `CC1(C)CCC(Nc2ncc(C(F)(F)F)c(-c3c[nH]c4c(P(C)(C)=O)c(C#N)ccc34)n2)CN1` (stereo not drawn), the IC50 is recorded as 201, 128, 231, 54.2 nM. Besides, the viability, T/C (compound alone 0.1 µM) is listed as 69.8, 42.7, 64, 53.3%.

For `C[C@@H](NC(=O)c1ncnc(N)c1Cl)c1ncc(C(=O)Nc2cc(C(F)(F)F)c(Cl)cn2)s1`, the viability, T/C reads like this: (compound alone 0.0316 µM) 73.1, 118, 98.1, 98.9%; (compound alone 0.1 µM) 92.1, 82.8, 109, 106%; (compound alone 0.316 µM) 99.9, 99.7, 109, 129%; (compound alone 1 µM) 99.9, 122, 115, 130%.

In the case of `Cn1ncnc1[C@H]1c2n[nH]c(=O)c3cc(F)cc(c23)N[C@@H]1c1ccc(F)cc1`, the viability, T/C is, setting by setting: (compound alone 0.00316 µM) 84.3, 88.2, 88.1, 110%; (compound alone 0.01 µM) 104, 91.3, 91.4, 78.5%.

In the case of `CC(C)NCC(C(=O)N1CCN(c2ncnc3c2C(C)CC3O)CC1)c1ccc(Cl)cc1` (stereo not drawn), the viability, T/C is recorded as 75.8, 108, 96.2, 85.4% (compound alone 0.1 µM) and 69.2, 100, 83.7, 96.5% (compound alone 10 µM).

For `Cn1nccc1Nc1nccc(-c2ccn(C(CO)c3ccc(Cl)c(F)c3)c(=O)c2)n1` (stereo not drawn), the viability, T/C (compound alone 0.0316 µM) is given as 89.8, 68.8, 107, 97.1%; the viability, T/C (compound alone 0.316 µM) is listed as 54.6, 68.4, 83.1, 87.3%; the viability, T/C (compound alone 1 µM) was 92.5, 67, 88.8, 86.9%; the viability, T/C (compound alone 3.16 µM) is on record as 47.7, 73, 63.5, 85.2%.

Consider `CC(=O)c1c(C)c2cnc(Nc3ccc(N4CCNCC4)cn3)nc2n(C2CCCC2)c1=O`, for which the viability, T/C (compound alone 0.0316 µM) is on record as 87.8, 82, 83, 112%.

`CC(Cn1ccc(-c2ccc(C#N)c(Cl)c2)n1)NC(=O)c1cc(C(C)O)[nH]n1` (stereo not drawn): the viability, T/C by setting is: (compound alone 0.0316 µM) 99.7, 84.5, 76.1, 103%; (compound alone 0.1 µM) 103, 73.8, 97.3, 86.8%; (compound alone 10 µM) 69.6, 99, 85.1, 114%.

For the compound `CNC(=O)c1ccc(N2C(=S)N(c3ccc(C#N)c(C(F)(F)F)c3)C(=O)C2(C)C)cc1F`, the viability, T/C (compound alone 10 µM) is recorded as 66.6, 75.9, 92.4, 70.1%.

In the case of `Cn1cnc2c(F)c(Nc3ccc(Br)cc3Cl)c(C(=O)NOCCO)cc21`, the IC50 is 262 nM, 310 nM, > 3 µM, 486 nM. Further, the viability, T/C (compound alone 0.03 µM) was 82.6, 83.5, 61, 88.2%.

In the case of `CC(Nc1ccc2c(c1)OCCn1cc(N3C(=O)OCC3C(F)F)nc1-2)C(N)=O` (stereo not drawn), the viability, T/C (compound alone 0.00316 µM) is given as 101, 90.4, 89.9, 71.9, 99.3, 86.9, 84.2, 85.2%; the viability, T/C (compound alone 0.01 µM) is 78.9, 87.6, 82.2, 62.7, 99.7, 99.8, 88.6%; the viability, T/C (compound alone 0.0316 µM) was 85.5, 76.9, 87.9, 83.1, 93.7, 76, 104, 84%; the viability, T/C (compound alone 0.316 µM) was 74.7, 91.5, 85.5, 87.2, 65.8, 83.3, 80.5, 82%.

`C=CC(=O)N1CCN(c2nc(=O)n(-c3c(C)ccnc3C(C)C)c3nc(-c4c(O)cccc4F)c(F)cc23)C(C)C1` (stereo not drawn): the viability, T/C (compound alone 0.316 µM) is reported as 86.5, 79.6, 92.8, 111% and the viability, T/C (compound alone 10 µM) was 103, 107, 79.6, 111%.

For the compound `CCCS(=O)(=O)Nc1ccc(F)c(C(=O)c2c[nH]c3ncc(-c4ccc(Cl)cc4)cc23)c1F`, the viability, T/C (compound alone 0.0316 µM) is on record as 97.5, 95, 102, 76.3% and the viability, T/C (compound alone 3.16 µM) was 80.1, 102, 86.9, 74%.

As to `COc1c(OCCCN2CCOCC2)ccc2c3n(c(=NC(=O)c4cnc(N)nc4)nc12)CCN3`, the viability, T/C reads like this: (compound alone 0.00316 µM) 95.1, 96.5, 107, 79.9, 70.8, 77.7, 87, 92.1%; (compound alone 0.1 µM) 85.5, 64.4, 59 (2×), 66.1, 65, 73.5% (2×).

On to `CC(C)n1nc(-c2ccc3oc(N)nc3c2)c2c(N)ncnc21`, for which the viability, T/C (compound alone 0.000316 µM) was 96.3, 84.6, 77.1, 70.7%.

As to `CCN1CCN(Cc2ccc(Nc3ncc(F)c(-c4cc(F)c5nc(C)n(C(C)C)c5c4)n3)nc2)CC1`, the IC50 is listed as 259 nM, 370 nM, > 1 µM, 521 nM. In addition, the viability, T/C (compound alone 0.00316 µM) is reported as 71.8, 98.6, 90.2, 89%.

The values above are taken from PubChem BioAssay AID1963984 (Molecular Pharmacology Branch, DTP, NCI, 2024).
